Consider one molecule from patent US20250223314A1 (UCL BUSINESS, published 2025).

The test concerns the target Tocilizumab (IgG1). Briefly: SPR (Biacore), tocilizumab immobilised via EDC/NHS on CM5 chip, receptor as analyte. Background: In SPR one partner is held on a chip, and binding of the other changes the refractive index at the surface.

Tocilizumab (IgG1), sequence (chain, as listed by the source, chain 1 of 2): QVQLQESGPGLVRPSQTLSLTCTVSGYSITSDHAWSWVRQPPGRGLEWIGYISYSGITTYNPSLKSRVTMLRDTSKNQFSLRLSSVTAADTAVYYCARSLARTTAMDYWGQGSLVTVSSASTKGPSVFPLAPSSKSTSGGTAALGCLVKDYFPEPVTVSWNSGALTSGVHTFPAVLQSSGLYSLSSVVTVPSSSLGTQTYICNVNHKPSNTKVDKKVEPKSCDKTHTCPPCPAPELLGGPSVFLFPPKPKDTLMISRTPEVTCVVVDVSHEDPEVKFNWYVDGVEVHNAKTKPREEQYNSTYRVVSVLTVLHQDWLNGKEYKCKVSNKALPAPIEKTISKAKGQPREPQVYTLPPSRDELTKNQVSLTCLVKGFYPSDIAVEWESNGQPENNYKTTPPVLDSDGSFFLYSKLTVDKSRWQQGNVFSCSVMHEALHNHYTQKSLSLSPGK
Tocilizumab (IgG1), sequence (chain, as listed by the source, chain 2 of 2): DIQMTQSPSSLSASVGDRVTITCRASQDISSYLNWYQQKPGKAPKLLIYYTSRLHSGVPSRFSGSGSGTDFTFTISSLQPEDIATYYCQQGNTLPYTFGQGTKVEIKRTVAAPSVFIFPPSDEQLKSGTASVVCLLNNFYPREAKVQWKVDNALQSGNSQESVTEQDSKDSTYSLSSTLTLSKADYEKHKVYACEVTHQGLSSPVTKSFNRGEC

B1: single-domain WT FcγRIIIa (receptor)
chain: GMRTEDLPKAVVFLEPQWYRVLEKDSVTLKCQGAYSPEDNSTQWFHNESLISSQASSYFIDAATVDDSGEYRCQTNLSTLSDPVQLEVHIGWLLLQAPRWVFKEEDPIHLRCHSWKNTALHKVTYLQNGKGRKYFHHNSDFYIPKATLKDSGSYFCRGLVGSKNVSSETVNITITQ
Broadly, the Kd is a measure of binding affinity in units of concentration. The low end stands for higher affinity, the high end for lower affinity. B1 registered a Kd of 56 nM.
